Consider 91 compounds from PubChem BioAssay AID463173 (ICCB-Longwood Screening Facility, Harvard Medical School, 2010).

The whole screen tested about 52,000 compounds, of which about 4,300 (8.3%) were called active. Cut-off read from the data, not from the text of the source: active = survival mostly below about 52% (no sharp cut-off); inactive = mostly above about 56%. This is one part of the list.

For this experiment, the system named is DeltatarO mutant. Kind of experiment: growth inhibition of S. aureus wild type versus tarO mutant, primary screen, teichoic acid synthesis inhibitors, RN4220, OD600 (AID 463173). The settings on record: OD600, 18 h, stronger effect = lower value, screened at 18.75 µg/mL (by protocol).
Take `Cc1cccc(N(C)C(=O)CN2C(=O)COc3ccc(S(=O)(=O)N4CCCCCC4)cc32)c1`: the survival is inactive: 89%. As to `CCN(Cc1ccccc1)C(=O)C1CCN(c2ncnc3c2nc2n3CCCCC2)CC1`, the survival was inactive: 90%. Next, `COc1cccc(CNC(=O)c2cc3cccc4c3n2CC(C)S4)c1OC` (stereo unspecified): inactive: 84%; `CCCNC(=O)c1cc2nc(-c3ccc(Br)cc3)cc(C(F)(F)F)n2n1`: active: 51%.

Turning to `COc1ccc(Br)cc1CNC(=O)c1cc(=O)[nH]c2ccc(S(=O)(=O)N3CCCC3)cc12`, the survival is inactive: 81%. For the compound `CCCCn1c(SCC(=O)OC)nc2ccccc2c1=O`, the survival is inactive: 86%. With `CCOc1ccc(-n2c(SCc3nc(-c4ccc(OC)cc4)no3)nnc2-c2ccncc2)cc1`, the survival was inactive: 62%. Consider `CCOc1cccc2cc(-c3nc4sc5c(c4c(=O)[nH]3)CCC(C(C)(C)C)C5)c(=O)oc12` (stereo unspecified), for which the survival was inactive: 79%. Take `COc1ccc(Br)cc1CNC(=O)c1cc2ccccn2n1`: the survival was inactive: 77%.

Regarding `COc1cc(C2c3c(oc4cc(C)c(C)cc4c3=O)C(=O)N2CCCN2CCOCC2)ccc1O` (stereo unspecified), the survival was inactive: 77%. For `CCOC(=O)c1cc(S(=O)(=O)Nc2ccc(Br)c(C)c2)[nH]n1`, the survival was inactive: 76%. `Cc1ccc2c(c1)c1c(c(=O)n(-c3cccc(Cl)c3)c(=O)n1CC(=O)N1CCCC1)n2C`: the survival is inactive: 77%. With `Cc1c(C(=O)N2CCC(c3nc4ccccc4s3)CC2)oc2cc(Br)ccc12`, the survival is inactive: 107%.

`Cc1n[nH]c(C)c1N1C(=O)c2cccc3c(N4CCCCC4)ccc(c23)C1=O`: the survival was inactive: 83%.

For `CC1CCN(C(=O)CSCC(=O)O)CC1`, the survival was inactive: 91%. The figure for `Cc1ccc2c(=O)c(C(=O)c3ccccc3)cn(CC(=O)Nc3ccc4c(c3)OCCO4)c2n1` is inactive: 80%; for `Cn1c(=O)c2sccc2n2c(CCC(=O)NCc3ccc(F)cc3)nnc12` it is inactive: 71%. Next, `COc1ccc(CCNC(=O)CCn2c(=O)c3ccccc3n(CC(=O)Nc3ccccc3F)c2=O)cc1OC`: inactive: 106%; `CCOc1ccccc1NC(=O)Cn1c(=O)n(CCC(C)C)c(=O)c2cccnc21`: inactive: 89%. In the case of `O=C(COC(=O)c1cc(-c2cccs2)nc2ccccc12)c1ccc(Br)cc1`, the survival was inactive: 127%. Next, `Cc1nc2ccccc2n1CCc1nc2c3ccccc3nc(SCc3cccc(F)c3)n2n1`: inactive: 95%; `CC1=C(C(=O)Nc2ccccc2)C(c2ccccc2C)n2ncc(C(=O)Nc3ccccc3)c2N1` (stereo unspecified): inactive: 124%; `Cc1cc(C)cc(OCCn2c(C3CC(=O)N(c4ccccc4Cl)C3)nc3ccccc32)c1` (stereo unspecified): inactive: 85%.

Regarding `CC(=O)c1ccc(N2CCN(S(=O)(=O)c3c(C)nc4sc(C)cn4c3=O)CC2)cc1`, the survival was inactive: 75%. On to `CCOC(=O)c1[nH]c(C)c(CCC(=O)Nc2c(C)cc(C)cc2C)c1C`, for which the survival was inactive: 117%.

Turning to `CCCn1c(SCc2nc(-c3ccccc3C)no2)nnc1-c1ccc(Cl)cc1`, the survival is inactive: 47%.

Consider `COc1ccc(N2C(=O)CSC23C(=O)N(CC(=O)NC2CCCCC2)c2ccccc23)cc1` (stereo unspecified), for which the survival is inactive: 83%. With `CCc1nn(CC(=O)N2CCN(c3cccc(C)c3C)CC2)c(=O)c2cc3occc3n12`, the survival was inactive: 77%. Next, `Cc1cccc(N2CCN(C(=O)C3CCC(CNS(=O)(=O)c4ccc(Br)s4)CC3)CC2)c1C` (stereo unspecified): inactive: 84%; `Cc1cc2cccc(C)c2nc1SCC(=O)O`: inactive: 80%. `COc1ccc(Cn2c(C(=O)O)c(CNCc3cccc(OC)c3)c3ccc(C)cc32)cc1`: the survival was inactive: 74%. For the compound `COC(=O)c1cnn(-c2ccc(C(=O)Nc3cccc(C(C)=O)c3)cc2)c1N`, the survival is inactive: 70%.

Regarding `CCOc1ccc(NC(=O)CC2C(=O)N(c3ccccc3)C(=O)N2CCc2ccc(OC)cc2)cc1` (stereo unspecified), the survival was inactive: 59%.

Turning to `Cc1ccc(NC(=O)Cn2nc(C)c3nn(-c4ccc(Cl)cc4)c(C)c3c2=O)cc1C`, the survival was inactive: 75%. In the case of `Cn1c(=O)oc2cc(S(=O)(=O)N3CCC(C(=O)NCc4ccccc4Cl)CC3)ccc21`, the survival is inactive: 125%.

Turning to `O=C1CN(C(=O)Cc2ccc(F)cc2)C(c2ccccc2)c2cc(Br)ccc2N1` (stereo unspecified), the survival was inactive: 58%. The figure for `CC1(C)C=C2C(=NN(c3ccccc3)C(N)=C2C#N)CO1` is inactive: 73%; for `Cc1cc(S(=O)(=O)N2CCCC2)ccc1-n1cnnn1` it is inactive: 113%; for `Cn1c(NCCCCO)nc2c1c(=O)n(Cc1ccc(Cl)cc1)c(=O)n2C` it is inactive: 108%.

Consider `COc1ccc(NC(=O)Cn2c(=O)n(CCCC(=O)NCc3ccccc3OC)c(=O)c3ccccc32)cc1Cl`, for which the survival was inactive: 118%. For the compound `COc1cccc(NC(=O)CCS(=O)(=O)c2ccc3c(c2)oc(=O)n3C)c1`, the survival is inactive: 89%. In the case of `O=C(Cn1cc(S(=O)(=O)Cc2ccccc2Cl)c2ccccc21)NCc1ccccc1Cl`, the survival was inactive: 99%. Turning to `CCc1nnc(NC(=O)c2nc(S(=O)(=O)Cc3cccc(C)c3)ncc2Cl)s1`, the survival is active: 31%. For `CCOC(=O)N1CCN(C(=O)Cc2cccs2)CC1`, the survival is inactive: 67%. The figure for `CCc1nn(CC(=O)NC(C)CCc2ccccc2)c(=O)c2cc3cc(F)ccc3n12` (stereo unspecified) is inactive: 92%. The figure for `CCCCn1cc(S(=O)(=O)c2ccc(C)c(C)c2)c(=O)c2cc(F)c(N3CCN(C)CC3)cc21` is inactive: 101%; for `NC(=O)CSc1oc(-c2ccco2)nc1S(=O)(=O)c1ccc(Br)cc1` it is inactive: 73%. The figure for `Cn1c(CN2CCCCC2)nc2cc(NC(=O)c3cccc(Br)c3)ccc21` is inactive: 93%. `CCn1cc(C(=O)NCCCOC(C)C)c(=O)c2cc(S(=O)(=O)N3CCc4ccccc4C3)ccc21`: the survival was inactive: 119%.

In the case of `O=C(CN1C(=O)CCSc2ccc(S(=O)(=O)N3CCCC3)cc21)Nc1ccccc1`, the survival was inactive: 87%. Next, `CCC(C(=O)Nc1ccccc1C(=O)OC)n1c(C)c2cnn(-c3ccccc3)c(=O)c2c1C` (stereo unspecified): inactive: 76%; `CCC(Oc1ccccc1)C(=O)Nc1ccc(O)c(-c2nc3cc(C)ccc3o2)c1` (stereo unspecified): inactive: 50%; `Cc1ccccc1NC(=O)CC1COc2ccccc2O1` (stereo unspecified): inactive: 78%. Next, `Cc1ccc(N(CC(=O)Nc2ccc(Br)cc2)S(=O)(=O)c2cccs2)cc1`: inactive: 81%; `CCc1ccccc1NC(=O)c1ccc2nc(C(C)C)oc2c1`: inactive: 73%; `O=C(Nc1nnc2n1CCS2)c1ccccc1C(F)(F)F`: inactive: 93%. Consider `CC(C)CCNC(=O)CCC(=O)NNc1nc2ccccc2c2nc(-c3ccccc3)nn12`, for which the survival was inactive: 123%. As to `O=c1c(Cl)c(NCCO)ncn1-c1ccccc1`, the survival was inactive: 68%.

Regarding `COc1cc(OC)cc(C(=O)N2CC(=O)Nc3ccc(Cl)cc3C2c2ccccc2)c1` (stereo unspecified), the survival was inactive: 74%. Next, `CC(=O)ON1C(c2ccccc2)[N+]([O-])=C(c2ccccc2)C1(C)C` (stereo unspecified): inactive: 67%; `CCOc1ccc(CNS(=O)(=O)c2cc3c(cc2C)NC(=O)CO3)cc1`: inactive: 92%. Next, `CC(=O)c1ccc(N2CCN(C(=O)CCCCn3c(=O)[nH]c4ccsc4c3=O)CC2)cc1`: inactive: 77%; `O=C(Nc1cccc(C(F)(F)F)c1)c1cc(-c2ccc3c(c2)OCCO3)on1`: inactive: 116%; `CCSc1nnc(NC(=O)c2cc(=O)c3cc(C)c(C)cc3o2)s1`: active: 44%.

For `CCOC(=O)C1=C(c2ccccc2)OC(N)=C(C#N)C1c1ccncc1` (stereo unspecified), the survival was inactive: 87%. Consider `CCc1cnc2c(c1SCC(=O)c1ccc(Cl)cc1)c(=O)n(C)c(=O)n2C`, for which the survival is inactive: 96%. Consider `CCOC(=O)c1c(-c2ccc(OC)cc2)oc2ccc(OCc3ccc(Br)cc3)cc12`, for which the survival is inactive: 63%. Next, `CSc1nc(C)c2cc(C)ccc2n1`: inactive: 89%; `O=C(NCc1ccccc1)C(=O)NCC(c1cccs1)S(=O)(=O)c1ccccc1` (stereo unspecified): active: 52%. Next, `COc1ccc2cc3cc(C(=O)NCc4ccccc4OC)oc3nc2c1`: inactive: 80%. Next, `CCC(C)(C)n1nnnc1C(c1ccccc1OC)N1CCN(C(=O)c2ccco2)CC1` (stereo unspecified): inactive: 87%; `COc1ccc(C2=C(C)C(N3CCC(C(=O)Nc4ccc(F)cc4C)CC3)=NS2(=O)=O)cc1`: inactive: 83%. Regarding `O=C1CC(N2CCCC2)C(=O)N1c1ccccc1` (stereo unspecified), the survival was inactive: 96%. Next, `O=C(Nc1ccc(Cl)c(C(F)(F)F)c1)C(Cc1ccccc1)NS(=O)(=O)c1ccc(Br)s1` (stereo unspecified): inactive: 82%; `Brc1cccc(-c2cnn3c(-c4ccccc4)cc(-c4ccccc4)nc23)c1`: inactive: 74%. The figure for `CCN(CC)C(=O)CN1C(=O)/C(=C/c2ccccc2)SC1=S` is inactive: 78%. In the case of `CCOc1ccc(NC(=O)C(=O)NCc2ccco2)cc1`, the survival was inactive: 61%.

In the case of `COc1cccc(C(=O)NCC(c2ccc3c(c2)OCO3)N2CCOCC2)c1` (stereo unspecified), the survival was inactive: 112%.

Consider `O=C(c1ccccc1Cl)N1CCCCC1CCN1CCCCC1` (stereo unspecified), for which the survival was inactive: 100%. The figure for `O=C(Nc1nnc2n1CCS2)c1ccc(F)cc1F` is inactive: 82%; for `COc1ccc(NC(=O)C(C)N(c2ccccc2)S(C)(=O)=O)cc1` (stereo unspecified) it is inactive: 73%. `COc1ccc2cc(C#N)c(=S)[nH]c2c1`: the survival is inactive: 78%. As for `Cc1cccc(N2CCN(S(=O)(=O)c3csc(C(N)=O)c3)CC2)c1C`, the survival is inactive: 76%. Turning to `Cc1ccc(-c2nc3ncccc3o2)cc1NC(=O)c1ccc(-c2ccc(Cl)cc2)o1`, the survival was active: 35%. Next, `Cc1ccc(N(Cc2cccs2)C(=O)c2ccccc2Cl)cc1`: inactive: 78%. The figure for `CC1(NS(C)(=O)=O)CC=CC1` is inactive: 115%; for `C#Cc1ccc(C#C)cc1` it is inactive: 95%; for `CCOC(=O)c1ccc(NC(=O)c2cc3sccc3n2Cc2ccc(Cl)cc2)cc1` it is inactive: 79%. The figure for `O=C(OCC1CCNCC1)c1ccc(F)cc1` is inactive: 100%; for `Cc1ccc(-n2c(=O)c3ccc(C(=O)NCc4ccco4)cc3n(Cc3ccccc3C#N)c2=O)cc1` it is inactive: 129%. With `Cn1c(=O)c2cc(C(=O)NCCCN3CCN(c4ccccc4F)CC3)sc2c2ccccc21`, the survival is inactive: 82%.
